Values joined by “and” are separate entries in the source; they are usually repeats but may differ in a detail not shown here. Identical values can stand only once. Among all 72,000 compounds or so, about 710 (0.99%) were called active. Inconclusive means that the source gave no clear call. Such entries were picked first, then a sample of the others. Calls follow the shape of the dose curve; as a rule, active = well fitted inhibition curve with a large enough effect; inconclusive = small, poorly fitted or top-dose-only effect; inactive = no such curve, though single readings can be large or run the other way. A potency beside an inconclusive call is a rough fit, not a confirmed value.
Test: qHTS Assay for Inhibitors of the ERK Signaling Pathway using a Homogeneous Screening Assay; also: nearly all actives have a fitted effect of over 55% in size
Conditions: HEK293-V1b, vasopressin-stimulated pERK AlphaScreen; activity, negative = inhibition: at 57.5 µM (top of the series) unless noted
Procedure, shortened: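 Overnight-seeded V1b-HEK293 cells in 1% FBS got compound, then vasopressin (25 nM final, 5 min, 37C), then lysis buffer. AlphaScreen detection of phospho-ERK; activity normalized to basal and full-stimulation controls.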
% is scaled to controls: 0 for no effect and ±100 for the full control effect; potency is read from the fitted curve at half-maximal effect; tags tell the direction and shape of the fitted curve.

activity, negative = inhibition, inactive:
O=C1c2cccc3c(Cl)ccc(c23)C(=O)N1O -9.12%, O=C(c1cc(C(F)(F)F)cc(C(F)(F)F)c1)N1CCC2(CCN(Cc3ccccc3)CC2)CC1 7.02%, COC(=O)[C@@]1(Cc2ccc(OC)cc2)[C@H]2c3cc(C(=O)N4CCCC4)n(CCN4CNCC4=O)c3C[C@H]2CN1C(=O)c1ccccc1 24.4%, COC(=O)c1ccc(C(NC(=O)OCc2ccccc2)/C(F)=C/[C@@H](C)C(=O)NCc2cccnc2)cc1 (stereo partly drawn) 7.43%, CN(CCc1ccccn1)C(=O)c1nn2c(C(F)(F)F)cc(-c3ccco3)nc2c1Cl -27.6%, N#Cc1c(-c2ccco2)cc(-c2ccc(F)cc2)nc1N 4.77%, O=C(Nc1ccc2oc(-c3ccccc3Cl)nc2c1)c1cncc(Br)c1 -23.4%, O=S(=O)(c1ccccc1)c1nc(-c2ccco2)oc1NCCCN1CCOCC1 -23.8%, O=C(CSc1nnc(Cc2cccs2)n1C1CCCCC1)N1CCCc2ccccc21 -25%, O=C(CCCSc1nc(-c2ccco2)cc(C(F)(F)F)n1)Nc1ccc2c(c1)OCO2 5.46%, CCC(=O)Nc1nonc1-c1nc2ccccc2n1N(C(=O)CC)C(=O)CC 4.28%, COC(=O)c1ccc(C(NC(=O)OCc2ccccc2)/C(=C/[C@@H](C)C(=O)NCC2CC2)c2cccnc2)cc1 (stereo partly drawn) -4.12%, Cc1nc2ccccc2n1S(=O)(=O)c1ccc(S(=O)(=O)N2CCCCCC2)cc1 16.5%, CCCCCCN(C(=O)CCCCCN1C(=O)NC(c2ccccc2-c2ccccc2)C(C(=O)OCc2ccccc2)=C1C)C(C(=O)NCCCC)c1ccc(OCC(=O)OC)c(C(=O)OC)c1 (stereo not drawn) 6.04%, CC(=O)O[C@@]1(C(C)=O)CCC2C3CC(C)C4=CC(=O)CC[C@@]4(C)C3CC[C@]21C (stereo partly drawn) 2.82%, COC(=O)c1c(C)nc(C)c2c(=O)oc3ccccc3c12 4.83%, Cc1c(C(=O)OCCOc2ccccc2)[nH]c2c1C(=O)CCC2 -19.3%

Potency, inactive:
CCC(O)OC(O)CC (stereo not drawn)

Potency, inconclusive:
Cn1cnc2c1c(=O)n(Cc1ccc(F)cc1Cl)c(=O)n2C 25.1 µM [inhibitor, single point], COc1ccc(-c2nnc(CSc3nc4ccccc4c(=O)n3CC(C)C)o2)cc1OC 12.6 µM [inhibitor, partial curve], COc1ccc(-n2nnnc2SCC(=O)Nc2cccc(C)n2)cc1OC 0.158 µM [inhibitor, full curve, poor fit], CC(C)C[C@H](NC(=O)OC(C)(C)C)c1nnc(SCC(=O)Nc2ccc(Br)cc2)o1 31.6 µM [inhibitor, single point], CCc1nc(N)c(C#N)c(-c2ccc(O)c(OC)c2)c1C 25.1 µM [inhibitor, partial curve], CN1/C(=C\C(=O)c2ccco2)C(C)(C)c2ccccc21 39.8 µM [inhibitor, single point], O=C(c1ccco1)N1CCN(c2ncnc3sc4c(c23)CCC4)CC1 15.8 µM [inhibitor, single point], O=C1c2ccccc2C(=O)c2c1ccc(O)c2O 10 µM [inhibitor, partial curve, poor fit] and 31.6 µM [inhibitor, partial curve, poor fit], CCOC(=O)N1CCN(C(=O)c2cn(CC(C)C)c(=O)c3c2c2ccccc2n3C)CC1 0.398 µM [inhibitor, full curve, poor fit], CC(=O)Nc1ccc(N/C=C/C(=O)c2ccc(C)o2)cc1 25.1 µM [inhibitor, single point], COC(=O)CSc1nnc(-c2ccccn2)n1Cc1ccco1 15.8 µM [inhibitor, partial curve], CCOc1ccc(C2CC(c3ccccc3C)n3nc(N)nc3N2)cc1 (stereo not drawn) 3.16 µM [inhibitor, partial curve], CN1CCN(CCCN2c3ccccc3Sc3ccc(Cl)cc32)CC1 10 µM [inhibitor, partial curve], C=CCNS(=O)(=O)c1ccc(OC)c(C)c1 10 µM [inhibitor, partial curve], O=C1c2ccccc2C(=O)N1CSc1ncccn1 25.1 µM [inhibitor, partial curve, poor fit], Brc1ccc2ncnc(Nc3ccc(N4CCOCC4)cc3)c2c1 12.6 µM [inhibitor, partial curve], COc1ccccc1N1CCN(Cc2nc(N)nc(Nc3ccc(C)cc3)n2)CC1 0.01 µM [inhibitor, full curve, poor fit], CCc1nc2ccccc2n1CCC(C)C 2.51 µM [inhibitor, partial curve], COc1ccccc1-c1nc(C#N)c(N2CCN(Cc3ccccc3)CC2)o1 31.6 µM [inhibitor, single point], CCOC(=O)N1CCN(C(=O)CSc2nnc(-c3ccc(C(C)(C)C)cc3)o2)CC1 31.6 µM [inhibitor, single point], OC(c1cccc(OCc2ccccc2)c1)c1nnc(-c2ccccc2)o1 (stereo not drawn) 39.8 µM [inhibitor, single point], COc1ccc(NC(=O)Nc2cccs2)cc1OC 20 µM [inhibitor, single point], N#Cc1nc(-c2ccccc2Cl)oc1NCc1ccco1 25.1 µM [inhibitor, partial curve], O=C(COC(=O)c1ccc(Br)o1)Nc1nc2ccccc2s1 31.6 µM [inhibitor, single point], CCOC(=O)CSc1nnc(-c2ccco2)n1-c1ccc(C)cc1 25.1 µM [inhibitor, single point], O=C(CCN1C(=O)c2ccccc2C1=O)Nc1sc2c(c1C(=O)NCc1ccco1)CCCC2 2 µM [inhibitor, partial curve], CCCCn1c(-c2ccsc2)nc2c1c(=O)[nH]c(=O)n2CCC 20 µM [inhibitor, partial curve], COc1ccc(C(=O)N2CCc3cc(OC)c(OC)cc3C2)cc1OC 15.8 µM [inhibitor, partial curve], CC(C)OCCCN1C(=O)c2[nH]nc(-c3ccccc3O)c2C1c1cccc(Cl)c1 (stereo not drawn) 39.8 µM [inhibitor, single point], COc1ccc(-c2cnc(N)nc2-c2ccc(OC)cc2O)cc1 15.8 µM [inhibitor, single point], O=c1c2cnn(-c3ccccc3)c2nc(-c2ccco2)n1-c1ccccc1 39.8 µM [inhibitor, single point], COc1ccc(N2CCN(c3nc4c(c(=O)n(C)c(=O)n4C)n3Cc3ccccc3)CC2)cc1 31.6 µM [inhibitor, partial curve], COc1cc(SC)ccc1C(=O)Nc1ccon1 25.1 µM [inhibitor, single point], CCc1nc(NCCc2ccccn2)c2nnn(Cc3ccccc3F)c2n1 39.8 µM [inhibitor, single point], O=C1/C(=C/Nc2ccc3c(c2)OCO3)CCc2ccccc21 25.1 µM [inhibitor, partial curve], COc1ccccc1CNc1ncnc2ccc(-c3cccc(C#N)c3)cc12 15.8 µM [inhibitor, partial curve], CC1CN(CC(O)COc2ccc(C(C)C)cc2)CC(C)O1 (stereo not drawn) 39.8 µM [inhibitor, single point], COc1ccccc1Nc1nc(-c2cccs2)cs1 25.1 µM [inhibitor, single point], O=C(O)CCC(=O)N1CCN(c2nc3ccccc3s2)CC1 7.94 µM [inhibitor, full curve, poor fit], CCCCC[C@H](O)/C=C\[C@H]1[C@H](C/C=C\CCCC(=O)O)[C@@H](O)C[C@H]1O (tested in a mixture with another compound) 10 µM [inhibitor, partial curve, poor fit], C=CCn1cc(C(=O)OC)c(=O)c2cc(S(=O)(=O)N3CCC(C)CC3)ccc21 12.6 µM [inhibitor, partial curve], CC1=CCC2CC1C2(C)C (stereo not drawn) 39.8 µM [inhibitor, single point], CCn1c(=O)c(C(C)=O)nc2ccccc21 10 µM [inhibitor, partial curve], Cn1nc(-c2ccc(Cl)cc2)c2cc(C(=O)NCC3CCCO3)sc21 (stereo not drawn) 1 µM [inhibitor, full curve, poor fit], Cc1ccc(N=C2SCCCN2C(=O)c2ccco2)cc1Cl 15.8 µM [inhibitor, partial curve], CCOc1ccc(-c2cc(CCCC(=O)Nc3cccc(OC)c3)no2)cc1 5.01 µM [inhibitor, partial curve]

Potency, active:
Clc1ccc2nc(-c3ccccc3)[nH]c2c1 25.1 µM, OCc1nc2ccccc2n1CC(O)Cn1ccc2ccccc21 (stereo not drawn) 15.8 µM, CCOC(=O)c1c(C)[nH]c(C)c1C(=O)COc1ccc(NC(=O)c2ccco2)cc1 25.1 µM, N#CC(C#N)=c1ccc2c(c1)NC1(CCCCC1)N=2 15.8 µM
